Source: patent US20120148575A1 (published 2012)

What was measured:
[1] = biological target: T1, recombinant human IL-5Rα, carrier-free soluble extracellular domain (R+D Systems) (human, UniProt Q01344 21-342); test: SPR; Experiment 1, rhIL-5Ra-down format, instrument 3000, mean of 1.57/2.69
T1 chain: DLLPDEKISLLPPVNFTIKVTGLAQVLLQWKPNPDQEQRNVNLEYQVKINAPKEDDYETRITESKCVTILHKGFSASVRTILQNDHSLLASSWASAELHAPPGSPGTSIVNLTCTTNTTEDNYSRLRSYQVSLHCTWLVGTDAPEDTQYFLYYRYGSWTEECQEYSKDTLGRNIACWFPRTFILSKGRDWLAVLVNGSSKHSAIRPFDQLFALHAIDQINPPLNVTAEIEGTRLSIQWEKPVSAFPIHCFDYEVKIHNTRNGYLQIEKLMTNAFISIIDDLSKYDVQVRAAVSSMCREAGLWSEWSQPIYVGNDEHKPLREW

[2] = biological target: T1, recombinant human IL-5Rα, carrier-free …; test: SPR; Experiment 2, capture format, instrument T100, mean of 6.52/6.18
[3] = biological target: T1, recombinant human IL-5Rα, carrier-free …; test: SPR; Experiment 0, capture format, instrument 3000
[4] = biological target: T2, muFcγRIV (UniProt A0A0B4J1G0 21-203); test: SPR
T2 chain: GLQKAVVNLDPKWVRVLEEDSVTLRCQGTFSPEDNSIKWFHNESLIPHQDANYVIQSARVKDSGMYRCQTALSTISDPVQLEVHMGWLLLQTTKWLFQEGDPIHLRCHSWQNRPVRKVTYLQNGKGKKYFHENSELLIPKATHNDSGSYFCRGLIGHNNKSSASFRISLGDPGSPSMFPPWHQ

Kd [1]: 2.13 nM
Kd [2]: 6.35 nM
Kd [3]: 2.9 nM
Kd [4]: 32 nM
B1: MEDI-563, humanized afucosylated IgG1 anti-IL-5R alpha chain monoclonal antibody (antibody)
heavy: EVQLVQSGAEVKKPGASVKVSCKASGYTFTSYVIHWVRQRPGQGLAWMGYINPYNDGTKYNERFKGKVTITSDRSTSTVYMELSSLRSEDTAVYLCGREGIRYYGLLGDYWGQGTLVTVSS[gap - human IgG1 constant region]
light: DIQMTQSPSSLSASVGDRVTITCGTSEDIINYLNWYQQKPGKAPKLLIYHTSRLQSGVPSRFSGSGSGTDFTLTISSLQPEDFATYYCQQGYTLPYTFGQGTKVEIKRTVAAPSVFIFPPSDEQLKSGTASVVCLLNNFYPREAKVQWKVDNALQSGNSQESVTEQDSKDSTYSLSSTLTLSKADYEKHKVYACEVTHQGLSSPVTKSFNRGEC
modifications: Fc N-glycan without fucose (afucosylated, Potelligent); the letters cannot carry it.
